Measurements published in article PMC4336329 (PLoS ONE, 2015).
The whole screen tested about 310,000 compounds, of which about 14,000 (4.5%) showed an effect of 50% or more. The effect is printed as a negative number. The list shows a part of the results.

biological target: human ether-à-go-go-related gene (hERG) potassium channel (human, UniProt Q12809); experiment: primary screen, population patch clamp on CHO cells stably expressing hERG
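Also: peak tail current of the secondary pulse compared with the same well before compound.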

Sequence of human ether-à-go-go-related gene (hERG) potassium channel (Q12809 whole entry, looked up): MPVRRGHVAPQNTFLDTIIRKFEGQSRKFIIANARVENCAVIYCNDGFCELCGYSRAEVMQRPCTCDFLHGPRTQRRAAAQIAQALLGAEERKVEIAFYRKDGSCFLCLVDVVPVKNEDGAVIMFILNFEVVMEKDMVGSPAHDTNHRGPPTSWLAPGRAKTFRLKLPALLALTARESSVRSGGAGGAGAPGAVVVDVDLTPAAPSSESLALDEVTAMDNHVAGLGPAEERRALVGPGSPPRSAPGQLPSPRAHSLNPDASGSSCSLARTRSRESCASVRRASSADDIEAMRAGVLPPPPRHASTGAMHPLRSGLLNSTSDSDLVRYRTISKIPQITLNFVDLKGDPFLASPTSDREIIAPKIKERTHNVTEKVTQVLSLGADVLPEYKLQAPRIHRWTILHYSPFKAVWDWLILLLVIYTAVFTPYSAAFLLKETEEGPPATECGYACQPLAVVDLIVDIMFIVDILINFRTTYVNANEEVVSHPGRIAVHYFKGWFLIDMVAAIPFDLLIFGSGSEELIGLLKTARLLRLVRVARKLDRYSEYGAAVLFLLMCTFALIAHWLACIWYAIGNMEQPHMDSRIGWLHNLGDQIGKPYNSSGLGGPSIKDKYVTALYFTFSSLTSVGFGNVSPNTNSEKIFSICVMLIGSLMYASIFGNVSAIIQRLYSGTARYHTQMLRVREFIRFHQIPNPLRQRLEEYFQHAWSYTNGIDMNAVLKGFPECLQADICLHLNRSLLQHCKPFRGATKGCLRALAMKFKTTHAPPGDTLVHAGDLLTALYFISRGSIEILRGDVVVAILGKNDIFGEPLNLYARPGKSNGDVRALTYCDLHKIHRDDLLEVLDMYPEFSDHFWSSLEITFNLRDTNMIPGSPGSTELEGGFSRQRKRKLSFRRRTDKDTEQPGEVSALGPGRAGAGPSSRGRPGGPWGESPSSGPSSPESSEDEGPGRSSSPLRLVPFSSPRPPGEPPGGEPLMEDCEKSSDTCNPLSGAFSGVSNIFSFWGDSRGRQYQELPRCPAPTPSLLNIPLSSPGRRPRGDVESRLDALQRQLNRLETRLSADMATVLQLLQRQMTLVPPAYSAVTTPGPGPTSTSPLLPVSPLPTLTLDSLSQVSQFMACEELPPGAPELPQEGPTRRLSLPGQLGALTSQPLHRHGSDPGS

Structure (SMILES)	hERG current change (%, negative = inhibition) at 10uM
CCc1cccc(NC(=O)CN(C)S(=O)(=O)c2cccc3cccnc23)c1	-9.11%
O=C(NC1CC1)c1cccc(S(=O)(=O)N2CCOCC2)c1	3.69%
CCOc1ncccc1C(=O)OCC(=O)Nc1ncc(C(F)(F)F)cc1Cl	-9.28%
C/C(=N\Nc1ccc(S(=O)(=O)Nc2ccccc2)cc1[N+](=O)[O-])c1ccc(N2CCOCC2)cc1	-12.8%
O=C(c1ccccc1-c1nc2ccccc2[nH]1)N1CCOCC1	-5.47%
C=CCn1c(-c2cnn(-c3ccccc3)c2N)n[nH]c1=S	13.5%
C/C(=N\OC(=O)NC(C)C)c1sc(-c2ccc(Cl)cc2)nc1C	-11.3%
CCCNC(=O)CN1C(=O)NC(CC)(c2ccc(F)cc2)C1=O (centres unmarked)	5.38%
CN(C)/C=C(\C=[N+](C)C)c1[nH]ncc1[N+](=O)[O-].[O-][Cl+3]([O-])([O-])[O-]	8.25%
CC(=O)Nc1nonc1NC(=O)c1ccc(C(C)(C)C)cc1	-10.6%
CCN(CC(=O)Nc1ccccc1C(F)(F)F)CC(=O)NC1CC1	4.64%
C=CCN(CC=C)C(=O)c1cccc(OC2CCN(S(=O)(=O)N(C)C)CC2)c1	11.8%
COc1cc2c(C#N)c(N3CCN(c4ccccc4OC)CC3)nc(N)c2c(N)n1	5.45%
Cc1sc(NC(=O)CN2CCOCC2)c(C(=O)c2ccccc2)c1C	-18.3%
O=C(O)C1CC(=O)N(c2ccc(F)c(F)c2)C1 (centres unmarked)	13%
O=[N+]([O-])c1ccccc1OCc1nc(-c2cccs2)no1	19.1%
Cc1ccc(NC(=O)c2ccncc2)cc1[N+](=O)[O-]	-1.98%
CCc1ccc(NC(=O)c2ccc(NC(=O)C3CCCO3)cc2)cc1 (centres unmarked)	22.5%
CCOc1ccccc1NC(=O)[C@@H](NC(=O)c1ccccc1F)C(C)C	-6.35%
COc1ccccc1Oc1ccc(S(=O)(=O)N2CCCC2)cc1	-77.3%
COc1cc(/C=N/NC(=O)COc2ccccc2[N+](=O)[O-])ccc1OC(=O)c1ccco1	-1.29%
Cc1ccc(N(CC(=O)NC(C)(C)C)C(=O)CS(=O)CC(=O)Nc2ccc3c(c2)OCO3)cc1 (centres unmarked)	-0.306%
CSC(C(=O)c1cc2ccccc2o1)c1ccccc1 (centres unmarked)	7.64%

Structure (SMILES)	hERG current change (%, negative = inhibition) at 10uM
COc1cccc(CNC(=O)c2ccc(C)c(S(=O)(=O)N3CCCCC3)c2)c1	-19.5%
Cc1ccc(CN2CCN(/N=C/c3ccc(Cl)c([N+](=O)[O-])c3)CC2)cc1	-4.43%
Cc1oc2c(CN3CCC(C)CC3)c(O)ccc2c(=O)c1-c1ccccc1	-14.7%
Cl.Oc1ccc(Nc2ncnc3ccccc23)cc1	23.9%
S=C(Nc1ccc(Cl)c(Cl)c1)N1CCCC1	6.78%
COc1ccc(C(C)=O)cc1COc1cccc2cccnc12	-9.8%
Cc1cc(=O)oc2c3c(cc(OCC(=O)NCc4cccnc4)c12)OC(C)(C)CC3	-23.2%
CN(C)CCNC(NC(=O)c1cccs1)C(Cl)(Cl)Cl (centres unmarked)	-14%
CCc1noc(C)c1C(=O)NCCc1ccc(OC)c(OC)c1	2.06%
CCCCn1c(N)c(C(=O)NCCN2CCOCC2)c2nc3ccccc3nc21	-64.1%
O=C(CSc1nnc(-c2ccncc2)n1Cc1ccco1)Nc1nc(-c2ccccc2)cs1	-57.4%
Cc1[nH]c2ccccc2c1/C=N/NC(=O)c1ccccc1	12.6%
Cc1ccc2[nH]c(=O)c(CN(Cc3cccnc3)C(=S)NCCCN(C)C)cc2c1	4.54%
O=C(CC1CCCCC1)NCc1ccco1	7.66%
CCn1c(N2CCC(C)CC2)nc2c1c(=O)n(C)c(=O)n2C	4.16%
O=C(Nc1cccc(S(=O)(=O)N2CCCCC2)c1)c1c2c(nc3ccccc13)CCN(Cc1ccccc1)C2	32.5%
Cc1cc(S(=O)(=O)Nc2ccc(C(=O)N3CC(C)OC(C)C3)cc2)ccc1F (centres unmarked)	-20.2%
COc1ccc(OC(C)C(=O)Nc2ccc([N+](=O)[O-])cc2)cc1 (centres unmarked)	3.6%
COc1ccccc1/C=C1\C(=O)Nc2ccccc21	2.99%
COc1ccc(C(=O)NC2CCN(C(=S)Nc3ccccc3)CC2)cc1	12.7%
CC(C)CN1CCN(Cc2c(F)cccc2Cl)CC1CCO (centres unmarked)	-10.4%
C/C(=C(/NC(=O)c1ccccc1)C(=O)O)c1ccco1	21.4%
CC(=O)c1ccc(NC(=O)COC(=O)CCc2ccc(S(=O)(=O)N3CCOCC3)cc2)cc1	-14.4%

Structure (SMILES)	hERG current change (%, negative = inhibition) at 10uM
CCOC(=O)c1sc(S(C)(=O)=O)c2c1CC(C)(C)C/C2=N/O	-7.19%
O=[N+]([O-])c1ccc(-c2ccc(/C=N/O)o2)cc1	8.69%
COc1ccc(NC(=O)c2ccc3c(c2)C(=O)N(CC2CCCO2)C3=O)c(OC)c1 (centres unmarked)	15.1%
COC(=O)c1c(C)[nH]c(C(=O)CSc2ccc(Cl)cc2)c1C	19.9%
Cc1ccc(CSCC(=O)N2CCOCC2)cc1	8.89%
[Br-].c1cc[n+](CCCC[n+]2ccccc2)cc1	6.63%
CN1CCN(c2ccc([N+](=O)[O-])c3cccnc23)CC1	-41.5%
CC(Cc1ccccc1)NC(=O)Cc1ccc([N+](=O)[O-])cc1 (centres unmarked)	-17.8%
O=C(NC(=S)Nc1ccc(CN2CCCCC2)cc1)c1ccco1	-45.6%
Cc1ccnc(NS(=O)(=O)c2ccc(NC(=O)c3cncc(Br)c3)cc2)n1	3.35%
CCc1ccc(CNC(=O)CCc2nc(-c3cccs3)no2)cc1	-19.8%
CCc1ccc(-c2nn(Cc3ccccc3)cc2C=O)cc1	-6.26%
COc1ccc(-n2c(N)cc(=O)nc2SCC(=O)N2CCN(c3ccccc3)CC2)cc1	9.51%
CCOC(=O)c1sc(Nc2nc(C)cc(C)n2)nc1C	10.9%
COc1ccccc1N1CCN(C(=O)NCc2ccc(Cl)cc2)CC1	-6.42%
COc1ccc(N2C(=O)CSC23C(=O)N(CC(=O)NC2CCCC2)c2ccccc23)cc1 (centres unmarked)	7.19%
CCc1ccc(NC(=O)Cn2cnc([N+](=O)[O-])c2)cc1	-3.95%
O=C(Nc1ccccc1C(=O)O)c1ccccc1	8.69%
Oc1ccc(-c2cn3cc(C(F)(F)F)ccc3n2)cc1	-5.82%
O=C(CSc1ncn(-c2ccccc2)n1)N1CCc2ccccc21	-0.255%
COc1ccc(C(=O)Nn2c(C)nnc2-n2nc(C)cc2C)cc1OC	5.2%
COc1ccc(NS(=O)(=O)c2ccc(NC(=O)C(C)(C(F)(F)F)C(F)(F)F)cc2)nn1	7%
Cn1c(CSc2ncccn2)nnc1SCC(=O)N1CCCCC1	10.4%

Structure (SMILES)	hERG current change (%, negative = inhibition) at 10uM
CC1CCN(CC(=O)Nc2cccc(Cl)c2)CC1	-18%
COc1ccc(/C=C2\CCc3ccccc3C2=O)c(OC)c1OC	-16.1%
CCCN(C(=O)C(=O)Nc1ccc2nc3n(c(=O)c2c1)CCCCC3)c1ccc(OCC)cc1	-24.4%
O=C(CNC(=O)c1ccc(OC(F)F)cc1)Nc1cccc(S(=O)(=O)N2CCCC2)c1	-70.3%
O=C(COC(=O)c1cnccn1)N=c1sccn1Cc1ccccc1Cl	2.2%
CC(Sc1nnnn1-c1ccccc1)C(=O)Nc1ccc(N2CCN(C)CC2)cc1 (centres unmarked)	-20.4%
CCCN1CCN(C(=O)C2CCN(c3nnc(C)c4c(C)n(-c5ccc(C)cc5)nc34)CC2)CC1	-32.3%
O=c1c2cc(NC(=S)NC3CCCC3)ccc2nc2n1CCCCC2	-59.6%
Cc1cc(NC(=O)CCC(=O)N(Cc2ccc(F)cc2)C(C(=O)NC2CCCC2)c2ccco2)no1 (centres unmarked)	0.819%
C/C(N)=C(/C#N)C(=O)COc1ncnc2ccccc12	-1.47%
O=C(CCN1CCC(c2ccc(Cl)s2)=N1)c1ccc(Cl)s1	13.1%
COCCSc1nc(N)c(NC(=O)c2ccco2)c(=O)[nH]1	14.7%
O=C(Cn1cnc2c(nnn2Cc2ccc(F)cc2)c1=O)NCc1ccco1	-18.2%
CCCCCC(O)(CCN1CCCCC1)c1ccccc1.Cl (centres unmarked)	-82.4%
Cc1nc2ccc(Oc3ccccc3)cc2s1	5.91%
CCn1c(SCC(=O)Nc2cc(C)ccc2C)nnc1-c1cnccn1	-40.5%
CN(C(=O)c1ccccc1C(=O)OCC(=O)c1ccc(F)cc1)c1ccccc1	-24.2%
COC(=O)c1ccccc1NC(=O)CN(Cc1ccc(Cl)cc1)S(C)(=O)=O	-36.2%
Cc1ccc2c(c1)N(CCC(=O)NCc1cccnc1)C(=O)CO2	-0.463%
Cc1nc(SCC(N)=O)[nH]c(=O)c1Cc1ccc(OC(C)C)cc1	3.98%
